± gives the standard deviation of the averaged measurements. The full ranking holds about 4,100 sequences; the median of “arbitrary fluorescence units” is about 780, and the highest 2% start at about 22,000. Some of the results follow.
Biological target: T1, ETS1 (UniProt P14921)
T1 sequence: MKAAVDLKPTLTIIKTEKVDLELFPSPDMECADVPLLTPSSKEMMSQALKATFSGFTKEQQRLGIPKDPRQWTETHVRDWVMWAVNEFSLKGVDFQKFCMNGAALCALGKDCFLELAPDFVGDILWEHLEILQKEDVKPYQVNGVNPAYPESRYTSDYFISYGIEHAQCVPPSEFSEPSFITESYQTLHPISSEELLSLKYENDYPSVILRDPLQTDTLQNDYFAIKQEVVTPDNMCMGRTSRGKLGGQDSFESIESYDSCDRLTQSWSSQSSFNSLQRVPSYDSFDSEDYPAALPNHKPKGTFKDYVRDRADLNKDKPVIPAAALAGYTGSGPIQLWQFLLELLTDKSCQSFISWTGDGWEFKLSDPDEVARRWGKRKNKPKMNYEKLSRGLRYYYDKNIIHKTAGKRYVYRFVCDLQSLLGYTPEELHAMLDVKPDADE
Assay: ETS1 binding intensity (PBM fluorescence), ETS1 alone (arbitrary fluorescence units); higher = stronger binding
Conditions: ETS1 concentration 1 nM; RUNX1 concentration 0 nM
Outline: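 Full-length recombinant human ETS1 (1 nM, no RUNX1) was incubated, per standard PBM protocols, on double-stranded Agilent 4 × 180k arrays of 36-bp genomic probes whose RUNX1 partner site was mutated. Bound ETS1 was detected with anti-ETS1 antibody (Cell Signaling Technology 14069) and Alexa488-conjugated secondary antibody, then scanned on a GenePix 4400A. Binding level is spot fluorescence intensity, summarised over replicate spots (four printed per sequence) and not normalised.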

Going from CCTGTGACCCAGAGCACCAACAGGAATCTTTGGGGT to TTCCAAACCCCAACCTGCAGCCGGAATGGGGGAGTG, the ETS1 binding intensity rises from 366 to 434.

Compared with GGAGGCAGGGCCTCAACCCCGGGAAGCTGGGGTCGG, CGGGCCCGACGGAAACCATGTTTATGGCTCGCAGCA is higher in ETS1 binding intensity: 307 for the first, 846 for the second.

Going from GGGGCGGCTTCCGGCGGCGTGACCTGACCCCAAGAG to AACCTCACCAGCCACGGACAGGCAGGAAGAGGGCTG, the ETS1 binding intensity falls from 14100 to 589.

Compared with CTCCCACCATCCACTGCAGCCACTTCCGCCCGTCCT, AACTCCTGGCCGGAACGGCACAGACTGCACTCCCGC is lower in ETS1 binding intensity: 3490 for the first, 341 for the second.

Compared with TGTGCATGTGATTTTCGGGTACGTGATTTCCTCTTT, AGGGTTACAATTTCCGTAAACCAGAGAAGCAGCAGA is higher in ETS1 binding intensity: 521 for the first, 2910 for the second.

First: GCCCTGTGATTTTCTGAGGCCCCCGAGGAGGAAGTG
Second: AGAGCAACAGGATGCAAATAACTACAAGCAAGAATA
The ETS1 binding intensity of the first is lower: 386 for the first, 1540 for the second.

Compared with ACAGTTTAAGCACTCTAAACCCCAACTTCCTCATCT, GGTGTAGGTGCTGCTCCAGGCTATCGGATGCTCACC is lower in ETS1 binding intensity: 620 for the first, 492 for the second.

Going from CGAGCAGGAAGAAAGCCAGGCTCCGGGGCTGGGGGC to TAGGGGCTGAGGGTCCGGGCGGAAGTGGGGCAGGCG, the ETS1 binding intensity rises from 474 to 2500.

First: GGGCCCCTCAGCCCGACCGCCTGACCGGAAGTGCAG
Second: TGTGCTACCGAAGAGGCCAATCTTCAACAGGAAGTC
The ETS1 binding intensity of the first is higher: 5030 for the first, 793 for the second.

Going from CGCCCTCCGGAAGAGAGGGCGGACAGCGCCCGCGCC to GAACTTCCGGGACCACGTGACGTAGAACTACAACAA, the ETS1 binding intensity rises from 1310 ± 34 to 32800.

First: ATGCCAAGGGACTTCCCTCCACAAGCGCCCCCAGCT
Second: CCAGGAGGGATGGGGAAGTTCACCAGACACTCCATG
The ETS1 binding intensity of the first is higher: 471 for the first, 444 for the second.

Going from GCAGAAGGATTTCCTGTTTCAGGCAACCCCAGCGAC to AAGCACATCTGGTGGGGCTCTTCCGTGCTGGCCACA, the ETS1 binding intensity falls from 18000 to 364.

Compared with CAGCATGAGGGTGCACACACCGCTTCCTTAGAGGTT, GTCACAGGAAAGAAGGAGCCTCGCCTTAACGGCACC is lower in ETS1 binding intensity: 757 for the first, 587 for the second.

Compared with TGCCCGAGGGCCGCCGCCACCGTATTTCCGCGTTTT, AGCGCCGGAAGTGTGTCTGCGTAAAACTGCAGCTCG is higher in ETS1 binding intensity: 397 for the first, 9590 for the second.

First: CAACTATAACCCCAACTACGGCCAACATCCGAGTGC
Second: AGCGGCAGTAGAGGAAGCCTTCGCTGTCCATGGCCA
The ETS1 binding intensity of the first is higher: 473 for the first, 395 for the second.

Going from TCGCAGAGAATTCTTCCGGAGGCGGCCACGGACATC to GTGGCTATGGGAAGTGGGGTGCTGTTTCTGCCGGGG, the ETS1 binding intensity falls from 1040 to 576.

First: ATAAAGAAAAGCACTATCCAGTAACATCCGGCTCAG
Second: TCACATCCTGTAATGGTTTGCGCATATCACAGTTCT
The ETS1 binding intensity of the first is lower: 2580 for the first, 19000 for the second.

Going from ACGTTTCGGGGTTTCCGGGCCAGCGGATTCGGGCGC to TTTACGGGCGATTCCCTCTCAGGACTTCCGGACAGG, the ETS1 binding intensity falls from 4020 to 2120.

Compared with CAGTTCCAGGAAGCAGCCCCAAGCTTGTAGCCCTGA, GACTCCATTTCCCGTCGGCTCACGGTGGGAGCGCCG is higher in ETS1 binding intensity: 1110 for the first, 7570 for the second.

Going from TAAATGTTTCCTAAAAGCTCTTTCATAAACTACAGT to CTATTTTGGTGCCTGTTACCTACAGGAAATGAGACA, the ETS1 binding intensity rises from 626 to 1630.

Compared with CAGGGTGGAAACAGGAAGAGAAACCTCACTTAACCT, GGTGTTGTCAACACTGGGACAAGTTCTTCCGGGTCT is lower in ETS1 binding intensity: 1880 for the first, 474 for the second.

First: CAGAGCAGAGAGGAAGTGGTGGTGGCAACAGTCCCA
Second: GCTGGGGCCCCCTCCCAAAACCCGGGGAAGTGGATT
The ETS1 binding intensity of the first is higher: 2250 for the first, 349 for the second.

Compared with TGGCATAAATATGGGGTCACTTATCCTGCCTTCTCA, TCAACAGCAGTAACGACAAGTCTTTCCTGTCCCAGA is higher in ETS1 binding intensity: 389 for the first, 889 for the second.

Compared with TCTGCCGCCAGCCCATCCGCGACCGCCTCCAGATCT, CCTAAGCGGCTAAGGAACTGGCTTTGACAGGAAGTG is higher in ETS1 binding intensity: 343 for the first, 1520 for the second.

Compared with CCTTTGGGGTAGCAGTGGCCCCGCGCGGAGGAAGTT, CAAGGTTGAGCACACACCACCCTTCCGGAGCAGCTC is higher in ETS1 binding intensity: 303 for the first, 634 for the second.

First: GGGAGGCCCCATCCTGTGTGGCTGTGACTTTTGCCT
Second: GTCACACTGTAGTTTTACACGGAAGCTCAGGTTGCC
The ETS1 binding intensity of the first is higher: 2160 for the first, 516 for the second.

Going from TGAGCGCCGGAACAGCTCTCCCAGCAAGCACCTCTC to TTCCATTACGGGCTCCCAACAGTACCCTTCCTCCCT, the ETS1 binding intensity falls from 372 to 333.

First: TGTCCACCTCTACGGAAGTGCGCCGCTGTCCGCCAG
Second: CAGCCCAGTGGGAAGTGGGAGGGGCGGCCAGCAAGA
The ETS1 binding intensity of the first is higher: 951 for the first, 622 for the second.

First: CTCTGGCAGGAAGCTCTGAGGGCTAAACCCCAAAAA
Second: CGACCGGAACCACTCTGAGGCGCTGCCGTAGACACC
The ETS1 binding intensity of the first is higher: 1630 for the first, 1100 for the second.

Going from CGGGCACGTCCTACGGCAGCAACGTCCGCCGCGCCG to ATAGACGCGTGGATTTGTTTTTAAACATCCTGAGCA, the ETS1 binding intensity falls from 540 to 370.

First: ACCCAGCTGTGATTTGATCTCACACTTCCTTCACAC
Second: CATAGTGGATCTACGGGTTAGAGGAAATAGGCTGCA
The ETS1 binding intensity of the first is higher: 525 for the first, 506 for the second.

First: GAGCACATTTCCTTTTGCTTCCAGATACGACAGTGA
Second: ACCTTCGCCGGATGCTGTGGCTGAAACTACAGCATT
The ETS1 binding intensity of the first is higher: 3560 for the first, 3380 for the second.

Compared with CTGTTTCCTGCCTTTGCTGTCTGTGAGCGCATCAGT, GTACGACAGCGGGTTCCGGTGACCATGAAGGCGGCA is lower in ETS1 binding intensity: 9550 for the first, 2360 for the second.

First: AACAGCTTAGGAAGTAAGTGTAGCTTTGCTTAAGAC
Second: GGTGCGGCTGTGCGCGCGGGGCCGGAAGTGTGGGGA
The ETS1 binding intensity of the first is lower: 375 for the first, 2840 for the second.

First: GAGACTCAAAGCTACACCTTCCCACTTCCTGCAGCC
Second: CGGCGGCCCCTGCGCCTTCAGGCTTCCTGGCCGTCA
The ETS1 binding intensity of the first is higher: 1900 for the first, 383 for the second.

Compared with TCCAGGCATTTCCCCCATGTTGGCTCACTGCACTAT, CTGGGGTCGGGGCGAGGGAGCTGCCGGGGAAGTGAG is lower in ETS1 binding intensity: 881 for the first, 513 for the second.

First: CTCCTAGTGGGGCGCAGGGACAGGAAGCAGGGTTTA
Second: CGAGAACGGCGCCACTGAGGAACCGGAAACAAGCCA
The ETS1 binding intensity of the first is lower: 1140 for the first, 3230 for the second.

First: CAGCTGCTGTAGGTGGAGGTGGGCAGGAAGCCCTCC
Second: CCAACAGCAGCGCTACTCCCGGCCGCTTCCGCCTGG
The ETS1 binding intensity of the first is lower: 539 for the first, 748 for the second.

Going from GAGTCGTCAGCGCACACTTGGTTCCGGGCTACATTT to TCCGGTCTCGGGACGTCCGGCCCCGCGCACTCAGCA, the ETS1 binding intensity rises from 363 to 1830.

Going from AGTAGAGGAGGAAGTTAAATGTAGTTTTCTGGGTGG to GGCCCAGGAAAGAGGCAGGGGTGCTGTTTCCCTCCG, the ETS1 binding intensity falls from 736 to 306.

From the supplement of paper PMC10681739
